Measurements taken from a collection of fitness landscapes (doi:10.1016/j.celrep.2020.107928).
Whole data set: some 81,000 sequences, median “one-hybrid fitness for binding parS DNA” near -0.17, cut for the highest 2% near 0.51. Some of the results follow.

B1: Caulobacter ParB omega fusion; a variant is named by its letters at X, in order, B8GW30 (parent)
chain: MESVVVGEPGMSEGRRGLGRGLSALLGEVDAAPAQAPGEQLGGSREAPIEILQRNPDQPRRTFREEDLEDLSNSIREKGVLQPILVRPSPDTAGEYQIVAGERAWRAAQRAGLKTVPIMVRELDDLAVLEIGIIENVQRADLNVLEEALSYKVLMEKFERTQENIAQTIGKSXSHVANXMRLLXLPDEVQSYLVSGELTAXHARAIAAAADPVALAKQIIEGGLSVRETEALARKAPNLSAGKSKGGRPPRVKDTDTQALESDLSSVLGLDVSIDHRGSTGTLTITYATLEQLDDLCNRLTRGI

Variants of: B1
Test: one-hybrid fitness for binding parS DNA (scaled: cognate 1, non-cognate 0); higher = stronger binding
Conditions: with parS DNA site
How it was run: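 In E. coli USO, a HIS3 reporter with its site placed 19 bp from the promoter was used to select Caulobacter ParB variants randomised at four specificity codons. Growth lasted 48 hours at 37°C on histidine-free M9 containing 0.1 mM IPTG and 5 mM 3-AT. Fitness was taken as the log change in variant-to-wild-type read ratio from Illumina sequencing of pre- and post-selection plasmids, rescaled between the non-cognate and cognate sites.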

| Variant | one-hybrid fitness for binding parS DNA |
| --- | --- |
| GRNH | ≤ 0.2 |
| PVFY | ≤ 0.2 |
| PNIL | ≤ 0.2 |
| MYGL | ≤ 0.2 |
| ESAS | ≤ 0.2 |
| PNES | ≤ 0.2 |
| AHRK | ≤ 0.2 |
| PIAR | ≤ 0.2 |
| EQGS | ≤ 0.2 |
| HVCY | ≤ 0.2 |
| RDHT | ≤ 0.2 |
| HAKV | ≤ 0.2 |
| LPLK | ≤ 0.2 |
| LYHC | ≤ 0.2 |
| MESS | ≤ 0.2 |
| FVLR | ≤ 0.2 |
| LMMC | ≤ 0.2 |
| APEC | ≤ 0.2 |
| VTQM | ≤ 0.2 |
| PGYR | ≤ 0.2 |
| MKSA | ≤ 0.2 |
| GGCR | ≤ 0.2 |
| TVPG | ≤ 0.2 |
| RNAF | ≤ 0.2 |

| Variant | one-hybrid fitness for binding parS DNA |
| --- | --- |
| SSSR | ≤ 0.2 |
| SQYG | ≤ 0.2 |
| RIFP | 0.206 |
| VYDR | ≤ 0.2 |
| QVLC | ≤ 0.2 |
| QWMY | ≤ 0.2 |
| TQHS | ≤ 0.2 |
| TQID | ≤ 0.2 |
| DYGG | ≤ 0.2 |
| RESR | ≤ 0.2 |
| CIKS | ≤ 0.2 |
| VNVC | ≤ 0.2 |
| PIKG | ≤ 0.2 |
| SHCW | ≤ 0.2 |
| NHPR | ≤ 0.2 |
| NVCG | ≤ 0.2 |
| DRDF | ≤ 0.2 |
| YHCS | ≤ 0.2 |
| AFKF | ≤ 0.2 |
| QVSG | ≤ 0.2 |
| CSCD | ≤ 0.2 |
| QSAV | ≤ 0.2 |
| WMYP | ≤ 0.2 |
| NKVI | ≤ 0.2 |

| Variant | one-hybrid fitness for binding parS DNA |
| --- | --- |
| RCEY | 0.442 |
| RTSV | ≤ 0.2 |
| YILM | ≤ 0.2 |
| QCAE | ≤ 0.2 |
| QVCG | ≤ 0.2 |
| DHER | ≤ 0.2 |
| NLPD | ≤ 0.2 |
| YGAN | ≤ 0.2 |
| GFLA | ≤ 0.2 |
| NSKN | ≤ 0.2 |
| CISC | ≤ 0.2 |
| LHRN | ≤ 0.2 |
| SYVP | ≤ 0.2 |
| PYHS | ≤ 0.2 |
| DACW | ≤ 0.2 |
| INIL | ≤ 0.2 |
| QHSK | ≤ 0.2 |
| RKRD | ≤ 0.2 |
| QRIL | ≤ 0.2 |
| HQRA | ≤ 0.2 |
| RPCR | ≤ 0.2 |
| DRQH | ≤ 0.2 |
| SPQY | ≤ 0.2 |
| YSMV | ≤ 0.2 |

| Variant | one-hybrid fitness for binding parS DNA |
| --- | --- |
| RRVP | ≤ 0.2 |
| HMCR | ≤ 0.2 |
| FNDN | ≤ 0.2 |
| MSVC | ≤ 0.2 |
| TRLW | ≤ 0.2 |
| TTSW | ≤ 0.2 |
| RNWM | ≤ 0.2 |
| ETCS | ≤ 0.2 |
| QNSI | ≤ 0.2 |
| VKKA | ≤ 0.2 |
| MHQE | ≤ 0.2 |
| RQYE | ≤ 0.2 |
| NRSK | ≤ 0.2 |
| NHEC | ≤ 0.2 |
| FMND | ≤ 0.2 |
| DFAG | ≤ 0.2 |
| YNQG | ≤ 0.2 |
| WIHT | ≤ 0.2 |
| LKSE | ≤ 0.2 |
| AYSG | ≤ 0.2 |
| LVPG | ≤ 0.2 |
| EDFG | ≤ 0.2 |
| RPPT | ≤ 0.2 |
| LTHC | ≤ 0.2 |

| Variant | one-hybrid fitness for binding parS DNA |
| --- | --- |
| SAQF | ≤ 0.2 |
| LTDN | ≤ 0.2 |
| YSYS | ≤ 0.2 |
| EHFG | ≤ 0.2 |
| EVSD | ≤ 0.2 |
| AFRK | ≤ 0.2 |
| WLMR | ≤ 0.2 |
| KTKY | ≤ 0.2 |
| WSCT | ≤ 0.2 |
| LVLP | ≤ 0.2 |
| DFVD | ≤ 0.2 |
| EMQE | ≤ 0.2 |
| ARYN | ≤ 0.2 |
| QTNT | ≤ 0.2 |
| MMPH | ≤ 0.2 |
| MLPN | ≤ 0.2 |
| SILI | ≤ 0.2 |
| YHYL | ≤ 0.2 |
| LSLQ | ≤ 0.2 |
| RINS | 0.923 |
| TMSY | ≤ 0.2 |
| KDQS | ≤ 0.2 |
| YTLG | ≤ 0.2 |
| VSQA | ≤ 0.2 |

| Variant | one-hybrid fitness for binding parS DNA |
| --- | --- |
| LYVR | ≤ 0.2 |
| MRRG | ≤ 0.2 |
| MRTF | ≤ 0.2 |
| ECAV | ≤ 0.2 |
| AVWG | ≤ 0.2 |
| KPIG | ≤ 0.2 |
| RGGE | ≤ 0.2 |
| SEHL | ≤ 0.2 |
| AGYG | ≤ 0.2 |
| GGTS | ≤ 0.2 |
| MHPK | ≤ 0.2 |
| MVAC | ≤ 0.2 |
| NVVA | ≤ 0.2 |
| PKVR | ≤ 0.2 |
| LRCP | ≤ 0.2 |
| QRGI | ≤ 0.2 |
| RGAL | ≤ 0.2 |
| AECR | ≤ 0.2 |
| TGLG | ≤ 0.2 |
| GFVT | ≤ 0.2 |
| LVGL | ≤ 0.2 |
| THGA | ≤ 0.2 |
| MIRL | ≤ 0.2 |
| KKAV | ≤ 0.2 |

| Variant | one-hybrid fitness for binding parS DNA |
| --- | --- |
| VCTY | ≤ 0.2 |
| QVWW | ≤ 0.2 |
| NSLM | ≤ 0.2 |
| VNLG | ≤ 0.2 |
| SPLY | ≤ 0.2 |
| CIHS | ≤ 0.2 |
| VLTV | ≤ 0.2 |
| TKIK | ≤ 0.2 |
| QRGT | ≤ 0.2 |
| QVVW | ≤ 0.2 |
| NTNP | ≤ 0.2 |
| TGIC | ≤ 0.2 |
| QALW | ≤ 0.2 |
| STRV | ≤ 0.2 |
| ITGI | ≤ 0.2 |
| PIGC | ≤ 0.2 |
| FQHI | ≤ 0.2 |
| CSQS | ≤ 0.2 |
| CTAN | ≤ 0.2 |
| QACR | ≤ 0.2 |
| SYLG | ≤ 0.2 |
| RGRD | ≤ 0.2 |
| MDPD | ≤ 0.2 |
| HNLY | ≤ 0.2 |

| Variant | one-hybrid fitness for binding parS DNA |
| --- | --- |
| VAMA | ≤ 0.2 |
| AYNN | ≤ 0.2 |
| LEPV | ≤ 0.2 |
| MWVR | ≤ 0.2 |
| QTTE | ≤ 0.2 |
| LLVA | ≤ 0.2 |
| HSTN | ≤ 0.2 |
| RSEH | ≤ 0.2 |
| TSIC | ≤ 0.2 |
| RREV | ≤ 0.2 |
| HKIS | ≤ 0.2 |
| VAKC | ≤ 0.2 |
| GRYL | ≤ 0.2 |
| QGVT | ≤ 0.2 |
| YEAN | ≤ 0.2 |
| PCAK | ≤ 0.2 |
| SVSF | ≤ 0.2 |
| HLLL | ≤ 0.2 |
| LPLG | ≤ 0.2 |
| YDAM | ≤ 0.2 |
| SISG | ≤ 0.2 |
| AWKS | ≤ 0.2 |
| PGCA | ≤ 0.2 |
| STPI | ≤ 0.2 |

| Variant | one-hybrid fitness for binding parS DNA |
| --- | --- |
| QYSV | ≤ 0.2 |
| AASS | ≤ 0.2 |
| KLPT | ≤ 0.2 |
| WCHG | ≤ 0.2 |
| QMFV | ≤ 0.2 |
| MRPE | ≤ 0.2 |
| LAVM | ≤ 0.2 |
| IPKS | ≤ 0.2 |
| PPHM | ≤ 0.2 |
| IKSR | ≤ 0.2 |
| CRCT | ≤ 0.2 |
| KCNR | ≤ 0.2 |
| VYMR | ≤ 0.2 |
| NVHR | ≤ 0.2 |
| LMKM | ≤ 0.2 |
| PILV | ≤ 0.2 |
| NQLW | ≤ 0.2 |
| YAAE | ≤ 0.2 |
| RVVR | ≤ 0.2 |
| NTRI | ≤ 0.2 |
| HRAR | ≤ 0.2 |
| GEKG | ≤ 0.2 |
| SYDT | ≤ 0.2 |
| CKQC | ≤ 0.2 |

| Variant | one-hybrid fitness for binding parS DNA |
| --- | --- |
| GDME | ≤ 0.2 |
| QMTV | ≤ 0.2 |
| QTHY | ≤ 0.2 |
| ESYS | ≤ 0.2 |
| KAPT | ≤ 0.2 |
| PFKC | ≤ 0.2 |
| WPWT | ≤ 0.2 |
| VHPH | ≤ 0.2 |
| YPKV | ≤ 0.2 |
| FPSG | ≤ 0.2 |
| SCEN | ≤ 0.2 |
| VFQR | ≤ 0.2 |
| PSLA | ≤ 0.2 |
| AKIC | ≤ 0.2 |
| EAHS | ≤ 0.2 |
| VPNG | ≤ 0.2 |
| GDRG | ≤ 0.2 |
| MDLS | ≤ 0.2 |
| SRQM | ≤ 0.2 |
| NHDG | ≤ 0.2 |
| ADIR | ≤ 0.2 |
| NWNE | ≤ 0.2 |
| EEER | ≤ 0.2 |
| RMMR | ≤ 0.2 |

| Variant | one-hybrid fitness for binding parS DNA |
| --- | --- |
| EWAW | ≤ 0.2 |
| PLTL | ≤ 0.2 |
| SVRY | ≤ 0.2 |
| LHCR | ≤ 0.2 |
| QGWC | ≤ 0.2 |
| YPAE | ≤ 0.2 |
| ANPM | ≤ 0.2 |
| AMMG | ≤ 0.2 |
| SVQF | ≤ 0.2 |
| EVKT | ≤ 0.2 |
| CRIC | ≤ 0.2 |
| QEPN | ≤ 0.2 |
| YLYL | ≤ 0.2 |
| CHST | ≤ 0.2 |
| VTMV | ≤ 0.2 |
| PLHC | ≤ 0.2 |
| MDTE | ≤ 0.2 |
| GTGE | ≤ 0.2 |
| IWAG | ≤ 0.2 |
| WVWS | 0.289 |
| KICD | ≤ 0.2 |
| MQSC | ≤ 0.2 |
| HTRW | ≤ 0.2 |
| CDYF | ≤ 0.2 |

| Variant | one-hybrid fitness for binding parS DNA |
| --- | --- |
| VCMS | ≤ 0.2 |
| EHNG | ≤ 0.2 |
| HNTA | ≤ 0.2 |
| TMCA | ≤ 0.2 |
| AAFR | ≤ 0.2 |
| WEYS | ≤ 0.2 |
| FNYS | ≤ 0.2 |
| RAMF | 0.238 |
| WACT | ≤ 0.2 |
| GGTE | ≤ 0.2 |
| DFKE | ≤ 0.2 |
| NYLE | ≤ 0.2 |
| SPGA | ≤ 0.2 |
| NNWG | ≤ 0.2 |
| TSNA | ≤ 0.2 |
| MDSM | ≤ 0.2 |
| THFG | ≤ 0.2 |
| HAQW | ≤ 0.2 |
| AFRG | ≤ 0.2 |
| THWS | ≤ 0.2 |
| RTFV | ≤ 0.2 |
| SMQR | ≤ 0.2 |
| AKCD | ≤ 0.2 |
| FALR | ≤ 0.2 |

| Variant | one-hybrid fitness for binding parS DNA |
| --- | --- |
| SETG | ≤ 0.2 |
| MFRR | ≤ 0.2 |
| TEPH | ≤ 0.2 |
| CTVS | ≤ 0.2 |
| TWQG | ≤ 0.2 |
| NWPG | ≤ 0.2 |
| PYAK | ≤ 0.2 |
| AARP | ≤ 0.2 |
| VQPT | ≤ 0.2 |
| FICR | ≤ 0.2 |
| NDQT | ≤ 0.2 |
| AVPR | ≤ 0.2 |
| PMMT | ≤ 0.2 |
| NPGC | ≤ 0.2 |
| QFFS | ≤ 0.2 |
| DHPM | ≤ 0.2 |
| GPGG | ≤ 0.2 |
| RRQG | 0.727 |
